{"source": "PubChem BioAssay AID651820", "about": "(National Center for Advancing Translational Sciences (NCATS), 2012)", "note": "Screen size: about 340,000 compounds; about 12,000 (3.5%) were called active. Inconclusive results, whose numbers are uncertain, are shown with a selection of clear calls. Calls follow the shape of the dose curve; as a rule, active = well fitted inhibition curve with a large enough effect; inconclusive = small, poorly fitted or top-dose-only effect, or another doubt; inactive = no such curve, though single readings can be large or run the other way. Potencies of inconclusive entries are left out as doubtful fits. Potency is read from the fitted curve at half-maximal effect; tags tell the direction and shape of the fitted curve."}
{"assay": "qHTS Assay for Inhibitors of Hepatitis C Virus (HCV)", "conditions": "Huh7.5.1 HCVcc-Cre (HCVcc is cell-culture hepatitis C virus) infection, luciferase reporter, 44 h; series mostly up to 41.8 µM", "in_short": "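Infectious HCVcc-Cre (~0.5 moi) was added to cells just after compound, with cells seeded 4 h earlier at 1,000 per well. Luciferase activity after 44 h culture reported infection; substrate was incubated 15 min at room temperature before reading.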"}
{"smiles": "CCOCCn1c(CN2CCN(c3ccc(OC)cc3)CC2)nc2c1c(=O)n(C)c(=O)n2C", "Potency": "inconclusive [inhibitor, single point]"}
{"smiles": "COc1ccc(OCC(=O)N2CCN(C3CCC(c4ccccc4)CC3)CC2)cc1", "note": "(configuration not stated)", "Potency": "inconclusive [inhibitor, partial curve]"}
{"smiles": "COc1ccc(/C=N/Nc2nnc(Cc3ccc(OC)c(OC)c3)c(=O)[nH]2)cc1OC", "Potency": "inconclusive [inhibitor, single point]"}
{"smiles": "O=C1N=C(N2CCOCC2)S/C1=C\\c1cccs1", "Potency": "inconclusive [inhibitor, partial curve]"}
{"smiles": "Cc1ccn2c(CN3CCOCC3)c(-c3ccccc3)nc2c1", "Potency": "inconclusive [inhibitor, single point]"}
{"smiles": "COc1ccc([N+](=O)[O-])cc1C(=O)NCCOc1ccc(Cl)cc1", "Potency": "inconclusive [inhibitor, single point]"}
{"smiles": "COc1cc(CCC(=O)Nc2ccc(C)c(S(=O)(=O)N(C)C)c2)cc(OC)c1OC", "Potency": "inconclusive [inhibitor, partial curve]"}
{"smiles": "O=C(CN1C(=O)NC2(CCCCCC2)C1=O)Nc1ccc([N+](=O)[O-])cc1", "Potency": "inconclusive [inhibitor, single point]"}
{"smiles": "CC(=O)c1cc(C#N)c(SCC(=O)OC(C)C)nc1C", "Potency": "inconclusive [inhibitor, partial curve]"}
{"smiles": "Fc1ccc(NC(=S)Nc2nccs2)cc1", "Potency": "inconclusive [inhibitor, partial curve]"}
{"smiles": "CCc1ccc2c(CN3CCN(S(=O)(=O)c4ccccc4F)CC3)cc(=O)oc2c1", "Potency": "active: 12.6 µM"}
{"smiles": "C/C(CC1CC2=C(CC1(C)C)C(C)(C)CCC2)=N\\NC(N)=S", "note": "(configuration not stated)", "Potency": "active: 5.62 µM"}
{"smiles": "O=C(Oc1c(Cl)cc(Cl)c2cccnc12)c1ccco1", "Potency": "inconclusive [inhibitor, single point]"}
{"smiles": "CCC(=O)Nc1nnc(SCC(=O)NCC2CCCO2)s1", "note": "(configuration not stated)", "Potency": "active: 3.55 µM"}
{"smiles": "O=C(Nc1nc2ccccc2s1)c1ccc(N2CCCCC2)c([N+](=O)[O-])c1", "Potency": "inconclusive [inhibitor, partial curve, poor fit]"}
{"smiles": "COCCNC(=S)N(CCc1c(C)[nH]c2ccc(F)cc12)Cc1ccc(C)cc1", "Potency": "active: 14.1 µM"}
{"smiles": "CCOC(=O)C1=C(COC(=O)c2cccnc2SC)NC(=O)NC1C", "note": "(configuration not stated)", "Potency": "inconclusive [inhibitor, full curve, poor fit]"}
{"smiles": "O=C(NCC(c1ccc(F)cc1)N1CCOCC1)c1cccnc1Sc1ccccc1", "note": "(configuration not stated)", "Potency": "inconclusive [inhibitor, single point]"}
{"smiles": "O=C(N/N=C/c1cccnc1)c1ccc(NC(=O)c2ccc(Cl)cc2)cc1", "Potency": "inconclusive [inhibitor, partial curve]"}
{"smiles": "Cc1ccc(C2CC2C(=O)NNC(=S)Nc2cccc(C)c2)cc1", "note": "(configuration not stated)", "Potency": "inconclusive [inhibitor, partial curve]"}
{"smiles": "COc1cc(NC(=O)COC(=O)/C=C/c2c(C)nn(C3CCS(=O)(=O)C3)c2Cl)cc(OC)c1OC", "note": "(configuration not stated)", "Potency": "inconclusive [inhibitor, single point]"}
{"smiles": "COc1ccc2cc(/C=C/C(=O)N3CCN(CC(=O)N4CCCCCC4)CC3)ccc2c1", "Potency": "inconclusive [inhibitor, full curve, poor fit]"}
{"smiles": "N#C/C(C(=O)NCCc1ccccc1)=C1/N=C(NC(=O)c2cccs2)c2ccccc21", "Potency": "inactive"}
{"smiles": "CC(C)(C)c1ccc(C(=O)c2c[nH]c(C(=O)NCCCN3CCOCC3)c2)cc1", "Potency": "inconclusive [inhibitor, partial curve]"}
{"smiles": "CC1(C)CC(=O)c2c(O)cc(OCC(=O)Nc3ccc(CCO)cc3)cc2O1", "Potency": "active: 5.01 µM"}
{"smiles": "CCOc1ccc(NS(=O)(=O)c2ccc(NC(=S)NC(=O)CC(C)C)cc2)cc1", "Potency": "active: 11.2 µM"}
{"smiles": "Cc1onc(-c2c(Cl)cccc2Cl)c1C(=O)NC1CCCCC1", "Potency": "active: 12.6 µM"}
{"smiles": "O=C1CCC(C(=O)Nc2ccccc2N2CCCC2)=NN1", "Potency": "inconclusive [inhibitor, full curve, poor fit]"}
{"smiles": "Cc1cc(C)cc(OCC(=O)Nc2ccc(N3CCN(C(=O)c4ccco4)CC3)cc2)c1", "Potency": "inconclusive [inhibitor, full curve, poor fit]"}
{"smiles": "Cc1ccc(F)cc1NC(=O)c1ccc(OCC2CCCO2)cc1", "note": "(configuration not stated)", "Potency": "inconclusive [inhibitor, single point]"}
{"smiles": "CCc1cc2c(=O)n(Cc3ccco3)c(SCC(=O)NCC3CCCO3)nc2s1", "note": "(configuration not stated)", "Potency": "active: 10 µM"}
{"smiles": "CCN(CC)C(=O)[C@H]1C[C@H](CC(=O)NC(C)(C)C)C(=O)N2CCc3c([nH]c4ccc(Cl)cc34)[C@]12C", "Potency": "inconclusive [inhibitor, single point]"}
{"smiles": "COC(=O)Cc1nnc(SCC(=O)Nc2ccccc2)c2ccccc12", "Potency": "inconclusive [inhibitor, single point]"}
{"smiles": "N#Cc1cccc(NC(=O)Cn2c3[n+](c4ccc(C(F)(F)F)cc42)CCCCC3)c1", "Potency": "inactive"}
{"smiles": "Cc1cc(C(=O)COC(=O)c2ccc(O)cc2)c(C)n1CC1CCCO1", "note": "(configuration not stated)", "Potency": "inconclusive [inhibitor, single point]"}
{"smiles": "NC(=O)c1ccccc1OCC(=O)c1ccc(Cl)cc1", "Potency": "inactive"}
{"smiles": "CO[C@H]1/C=C/O[C@@]2(C)Oc3c(C)c(O)c4c(O)c(c(C=NN5CCN(C)CC5)c(O)c4c3C2=O)NC(=O)/C(C)=C\\C=C\\[C@H](C)[C@H](O)[C@@H](C)[C@@H](O)[C@@H](C)[C@H](OC(C)=O)[C@@H]1C", "Potency": "inactive"}
{"smiles": "COc1cc(NC(=O)C2=C(N3CCOCC3)/C(=C/c3ccc(Cl)cc3)CC2)cc(OC)c1OC", "Potency": "inactive"}
{"smiles": "[O-][N+]1=c2ccc(Nc3ccccc3)cc2=NC12CCCCC2", "Potency": "inconclusive [inhibitor, partial curve, poor fit]"}
{"smiles": "Cc1ccc(Nc2nc(C(=O)NCC3CCCO3)cs2)cc1", "note": "(configuration not stated)", "Potency": "inactive"}
{"smiles": "CC(C)N1CCN(Cc2ccc3c(c2)OCCO3)CC1CCO", "note": "(configuration not stated)", "Potency": "inactive"}
{"smiles": "COc1ccccc1NC(=O)Nc1ccnn1C1CCN(C(=O)c2ccccn2)CC1", "Potency": "inactive"}
{"smiles": "Cc1cccn2c(=O)c3cc(C(=O)NC4CCCCC4)n(C)c3nc12", "Potency": "inconclusive [inhibitor, single point]"}
{"smiles": "Cc1cccc2cc(CN(CC3CCCO3)C(=S)NCc3ccco3)c(=O)[nH]c12", "note": "(configuration not stated)", "Potency": "inconclusive [inhibitor, single point]"}
{"smiles": "COC(=O)c1ccccc1NC(=O)C1CCCCC1C(=O)O", "note": "(configuration not stated)", "Potency": "inactive"}
{"smiles": "Cc1ccc(Cn2c(CCNc3nc(-c4ccc(Cl)c([N+](=O)[O-])c4)cs3)nc3cc(C(=O)NCCCO)ccc32)cc1", "Potency": "inconclusive [inhibitor, partial curve]"}
{"smiles": "N#C/C(=C\\c1coc2ccccc2c1=O)C(N)=S", "Potency": "inconclusive [inhibitor, single point]"}
{"smiles": "COc1cccc(CC(=O)Nc2nc(-c3ccc(F)c(F)c3)cs2)c1", "Potency": "inconclusive [inhibitor, single point]"}
{"smiles": "O=C(Oc1cccc(/C=N/Nc2nc(Nc3ccccc3)nc(N3CCOCC3)n2)c1)c1ccco1", "Potency": "inconclusive [inhibitor, partial curve]"}
{"smiles": "O=C(Nc1cccc(-n2cccn2)c1)C1CCCN(Cc2cccc(F)c2F)C1", "note": "(configuration not stated)", "Potency": "inconclusive [inhibitor, single point]"}
{"smiles": "O=C(OCc1nc2ccccc2s1)c1cccc(N2C(=O)CCC2=O)c1", "Potency": "inactive"}
{"smiles": "CCN(CC)S(=O)(=O)c1ccc(NC(=O)COc2c(OC)cccc2OC)cc1", "Potency": "inconclusive [inhibitor, partial curve]"}
{"smiles": "Cc1noc2ncnc(Sc3ccccc3Cl)c12", "Potency": "inconclusive [inhibitor, single point]"}
{"smiles": "Cc1cc(NC(=O)c2ccccc2Cl)ccc1NC(=O)c1ccccc1Cl", "Potency": "inconclusive [inhibitor, partial curve]"}
{"smiles": "Nc1ccccc1N=Cc1c(O)n(CCC2=CCCCC2)c(=O)[nH]c1=O", "Potency": "inactive"}
{"smiles": "CCN(CC)CCN=Cc1c(O)n(CCc2ccccc2)c(=O)[nH]c1=O", "Potency": "inactive"}
{"smiles": "CCOc1cccc(C(=O)Nc2cccc(NC(=O)c3ccco3)c2)c1", "Potency": "inconclusive [inhibitor, partial curve, poor fit]"}
{"smiles": "CCCNC(=O)COc1ccc(S(=O)(=O)Nc2ccc(C)cc2)cc1", "Potency": "inactive"}
{"smiles": "CC(C)n1c(NCCc2ccccc2)nc2c1c(=O)n(C)c(=O)n2C", "Potency": "inconclusive [inhibitor, full curve]"}
{"smiles": "Cc1ccc(C2CCN(C(=S)NC3CCCCC3)C2)cc1", "note": "(configuration not stated)", "Potency": "inconclusive [inhibitor, single point]"}
{"smiles": "O=C(Nc1ccc2c3c(cccc13)CC2)c1ccco1", "Potency": "inactive"}
{"smiles": "Cc1cc(C)n(-c2nc(SCCN(C)C)c3c4c(sc3n2)COC(C)(C)C4)n1", "Potency": "active: 7.94 µM"}
{"smiles": "Fc1ccc(OCCCCCn2ccnc2)cc1", "Potency": "inconclusive [inhibitor, partial curve]"}
{"smiles": "O=C1c2ccccc2C(=O)C1(CO)c1ccc(OC(F)F)cc1", "Potency": "inconclusive [inhibitor, single point]"}
{"smiles": "Cc1cccc(NC(=O)Nc2cccc(C#N)c2)n1", "Potency": "inconclusive [inhibitor, partial curve]"}
{"smiles": "Cc1cccc(OCC(=O)Nc2ccc(N3CCCC3)cc2)c1C", "Potency": "inconclusive [inhibitor, single point]"}
{"smiles": "Cc1ccccc1SCC(=O)Nc1cc(C(F)(F)F)ccc1N1CCOCC1", "Potency": "inconclusive [inhibitor, partial curve]"}
